We go through 115 sequences from the BET-seq Pho4 binding data (Le et al. 2018).

This is one part of the list. These are noisy estimates, calculated here from bound and input reads.

In this assay the target is T1, Pho4 (S. cerevisiae) (UniProt P07270).
T1 sequence: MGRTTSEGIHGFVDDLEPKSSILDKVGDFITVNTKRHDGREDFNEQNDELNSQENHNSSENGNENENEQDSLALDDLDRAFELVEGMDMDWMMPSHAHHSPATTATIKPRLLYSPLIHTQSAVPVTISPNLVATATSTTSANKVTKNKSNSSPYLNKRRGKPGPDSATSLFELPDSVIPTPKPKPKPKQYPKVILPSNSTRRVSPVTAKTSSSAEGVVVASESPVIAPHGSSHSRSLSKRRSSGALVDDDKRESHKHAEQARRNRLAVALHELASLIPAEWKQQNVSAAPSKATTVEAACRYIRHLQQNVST
Put plainly: relative binding free energy (BET-seq); higher = weaker binding. Particulars: reference: library average.
For the sequence GTTATCACGTGCTTAT, the “relative binding free energy” value is 0.13 kcal/mol.

For CCGGTCACGTGGCGGT, the “relative binding free energy” value was found to be 0.04 kcal/mol.

As to TATAGCACGTGACTTG, the “relative binding free energy” value amounted to 0.2 kcal/mol.

With CCTGTCACGTGGGGAT, the “relative binding free energy” value is -0.04 kcal/mol.

On to TCAGGCACGTGAATGT, for which the “relative binding free energy” value turned out to be 0.22 kcal/mol.

Regarding TTGGTCACGTGGAAAT, the “relative binding free energy” value worked out at 0.28 kcal/mol.

For ACTTGCACGTGGGGTC, the “relative binding free energy” value was -0.13 kcal/mol.

In the case of AGTAACACGTGTGAAT, the “relative binding free energy” value came out at 0.16 kcal/mol.

With AGTTTCACGTGAGTAG, the “relative binding free energy” value was determined as 0.41 kcal/mol.

For GCGCGCACGTGAGGTT, the “relative binding free energy” value worked out at 0.15 kcal/mol.

With TATCGCACGTGGTTGG, the “relative binding free energy” value is -0.04 kcal/mol.

As for TTTTTCACGTGGTGTC, the “relative binding free energy” value was found to be 0.31 kcal/mol.

With GTGGTCACGTGGAGAT, the “relative binding free energy” value was 0.22 kcal/mol.

CTTATCACGTGGATGA: the “relative binding free energy” value was found to be 0.24 kcal/mol.

For AAGGACACGTGTATTG, the “relative binding free energy” value is 0.06 kcal/mol.

For AATAGCACGTGTGTAG, the “relative binding free energy” value is -0.03 kcal/mol.

With TCGGTCACGTGAACGT, the “relative binding free energy” value came out at 0.33 kcal/mol.

As to TGTCACACGTGGGCTG, the “relative binding free energy” value was -0.02 kcal/mol.

Consider AGGAACACGTGGTTGC, for which the “relative binding free energy” value came to 0 kcal/mol.

On to GGTCGCACGTGATTAA, for which the “relative binding free energy” value is 0.32 kcal/mol.

Turning to TATGGCACGTGGTCGG, the “relative binding free energy” value was -0.23 kcal/mol.

With ATTGGCACGTGCTAGG, the “relative binding free energy” value is -0.31 kcal/mol.

Regarding TGTTTCACGTGTGGAG, the “relative binding free energy” value is 0.33 kcal/mol.

On to GGAAGCACGTGTTGGG, for which the “relative binding free energy” value is -0.05 kcal/mol.

TGAATCACGTGGGAGC: the “relative binding free energy” value came out at 0.12 kcal/mol.

Regarding AGTAACACGTGTGTTT, the “relative binding free energy” value is 0 kcal/mol.

On to GTCTGCACGTGCGTGG, for which the “relative binding free energy” value was found to be 0.01 kcal/mol.

For TGTGACACGTGTGCAT, the “relative binding free energy” value is -0.04 kcal/mol.

For the sequence ATTTTCACGTGGGGAG, the “relative binding free energy” value is 0.28 kcal/mol.

Regarding TTGATCACGTGAGTGT, the “relative binding free energy” value was found to be 0.17 kcal/mol.

AGGATCACGTGTTGCA: the “relative binding free energy” value is 0.11 kcal/mol.

For GGGGGCACGTGTGTAA, the “relative binding free energy” value is -0.05 kcal/mol.

Turning to TATGGCACGTGGGATC, the “relative binding free energy” value was -0.25 kcal/mol.

As for AGTTCCACGTGGTGTT, the “relative binding free energy” value was 0.04 kcal/mol.

Turning to TAGAGCACGTGGGAAG, the “relative binding free energy” value was -0.09 kcal/mol.

Regarding TTGTGCACGTGTATTG, the “relative binding free energy” value is -0.05 kcal/mol.

Turning to TTTCACACGTGCGGGG, the “relative binding free energy” value was -0.05 kcal/mol.

Take GGAGACACGTGGGAGC: the “relative binding free energy” value is -0.07 kcal/mol.

As to ATGGGCACGTGGGGGG, the “relative binding free energy” value was -0.15 kcal/mol.

In the case of TGGGGCACGTGTTTAG, the “relative binding free energy” value was -0.06 kcal/mol.

On to GACGTCACGTGTTGGG, for which the “relative binding free energy” value worked out at 0.16 kcal/mol.

On to CTTTACACGTGGGAGA, for which the “relative binding free energy” value is 0.11 kcal/mol.

Consider TAAGGCACGTGGTTGA, for which the “relative binding free energy” value was -0.21 kcal/mol.

With AGGTGCACGTGAGCTA, the “relative binding free energy” value was 0.11 kcal/mol.

TTAAGCACGTGTTTTA: the “relative binding free energy” value is -0.07 kcal/mol.

For the sequence GGGGGCACGTGCTGGT, the “relative binding free energy” value is -0.13 kcal/mol.

Turning to TTATACACGTGGTGGC, the “relative binding free energy” value was -0.14 kcal/mol.

In the case of GATGGCACGTGGGTAA, the “relative binding free energy” value is -0.12 kcal/mol.

On to TAGGTCACGTGTTTAT, for which the “relative binding free energy” value is 0.09 kcal/mol.

Take GCAGCCACGTGGGAGG: the “relative binding free energy” value is -0.01 kcal/mol.

Regarding TGTTGCACGTGCTTTT, the “relative binding free energy” value was -0.05 kcal/mol.

Consider GTTGTCACGTGTCTTA, for which the “relative binding free energy” value was determined as 0.19 kcal/mol.

With AGGTACACGTGGAGTA, the “relative binding free energy” value was 0.02 kcal/mol.

Regarding AAATACACGTGTTTAT, the “relative binding free energy” value came to 0 kcal/mol.

As to AATTGCACGTGTGAGG, the “relative binding free energy” value was determined as 0.06 kcal/mol.

With CGTTGCACGTGATAGT, the “relative binding free energy” value was -0.01 kcal/mol.

For the sequence TCTAGCACGTGGGGCT, the “relative binding free energy” value is -0.19 kcal/mol.

In the case of AATGTCACGTGGTTGC, the “relative binding free energy” value worked out at 0.09 kcal/mol.

GCTAGCACGTGTTAGT: the “relative binding free energy” value was 0 kcal/mol.

In the case of GGGTTCACGTGTTCTC, the “relative binding free energy” value was 0.36 kcal/mol.

Take GGTTTCACGTGATGAA: the “relative binding free energy” value turned out to be 0.38 kcal/mol.

In the case of TGTTTCACGTGGGACG, the “relative binding free energy” value amounted to 0.17 kcal/mol.

With ATTAGCACGTGGGCTT, the “relative binding free energy” value is -0.1 kcal/mol.

With ATTCGCACGTGGTGTC, the “relative binding free energy” value was -0.14 kcal/mol.

On to GAGTCCACGTGTGTGT, for which the “relative binding free energy” value was 0.07 kcal/mol.

For the sequence TAGGCCACGTGTTTGT, the “relative binding free energy” value was -0.07 kcal/mol.

Regarding CGGTTCACGTGATGTT, the “relative binding free energy” value stood at 0.28 kcal/mol.

For TGGGCCACGTGTGGTG, the “relative binding free energy” value is -0.08 kcal/mol.

As for TCTTGCACGTGGGTAT, the “relative binding free energy” value was -0.09 kcal/mol.

With TAGTCCACGTGTATAT, the “relative binding free energy” value was 0.05 kcal/mol.

For the sequence GGGTGCACGTGGTTGG, the “relative binding free energy” value came out at 0.04 kcal/mol.

Consider TAGGGCACGTGTCAGA, for which the “relative binding free energy” value is -0.24 kcal/mol.

GTATTCACGTGTATGT: the “relative binding free energy” value is 0.18 kcal/mol.

In the case of TATACCACGTGGGTGG, the “relative binding free energy” value was -0.21 kcal/mol.

Regarding GGTCTCACGTGGGAAG, the “relative binding free energy” value was determined as 0.2 kcal/mol.

With ACATCCACGTGGGGTG, the “relative binding free energy” value is -0.04 kcal/mol.

As for ATTGTCACGTGGTCTA, the “relative binding free energy” value is -0.05 kcal/mol.

For AGCGACACGTGGGTAG, the “relative binding free energy” value was -0.25 kcal/mol.

As to ATGCTCACGTGTTTTG, the “relative binding free energy” value was found to be 0.06 kcal/mol.

Regarding GTAATCACGTGGTGTA, the “relative binding free energy” value stood at 0.12 kcal/mol.

For the sequence AGTTGCACGTGGGATC, the “relative binding free energy” value amounted to 0.05 kcal/mol.

Take TAGTGCACGTGGGACC: the “relative binding free energy” value was determined as 0.06 kcal/mol.

For the sequence AGTGACACGTGTTGAT, the “relative binding free energy” value stood at 0.05 kcal/mol.

Take GGTTTCACGTGTCGTA: the “relative binding free energy” value is 0.4 kcal/mol.

Turning to GTGCACACGTGTTTGT, the “relative binding free energy” value came out at 0.01 kcal/mol.

Regarding GATGGCACGTGTCGGA, the “relative binding free energy” value was determined as 0.09 kcal/mol.

For the sequence GGACACACGTGTAGGT, the “relative binding free energy” value came to 0.11 kcal/mol.

In the case of TATATCACGTGAAAGG, the “relative binding free energy” value was 0.43 kcal/mol.

In the case of TCTAGCACGTGATTGG, the “relative binding free energy” value is 0.1 kcal/mol.

As to GATGGCACGTGATTAT, the “relative binding free energy” value worked out at 0.12 kcal/mol.

Consider AAATGCACGTGTGAGG, for which the “relative binding free energy” value was 0.19 kcal/mol.

Turning to GCGGCCACGTGATGGG, the “relative binding free energy” value was -0.04 kcal/mol.

Take TGAGGCACGTGGTAGA: the “relative binding free energy” value was -0.2 kcal/mol.

As for GGGTTCACGTGCGTGT, the “relative binding free energy” value was determined as 0.37 kcal/mol.

Regarding GGTTTCACGTGACAGT, the “relative binding free energy” value was 0.29 kcal/mol.

Regarding GGGTACACGTGTACTG, the “relative binding free energy” value turned out to be 0.07 kcal/mol.

With ATTAGCACGTGTGTCG, the “relative binding free energy” value is -0.08 kcal/mol.

For CGGTACACGTGAGGTA, the “relative binding free energy” value stood at 0.37 kcal/mol.

For AGTGCCACGTGGAGTG, the “relative binding free energy” value was -0.03 kcal/mol.

For GCGGACACGTGGTGTA, the “relative binding free energy” value worked out at 0.04 kcal/mol.

For the sequence TTGTACACGTGTATAG, the “relative binding free energy” value is 0.06 kcal/mol.

With TTGAACACGTGGATAG, the “relative binding free energy” value is 0.15 kcal/mol.

For GGTTTCACGTGAGTTT, the “relative binding free energy” value is 0.51 kcal/mol.

As to ATTGTCACGTGATCGT, the “relative binding free energy” value is -0.01 kcal/mol.

Consider AATTTCACGTGCGATT, for which the “relative binding free energy” value came out at 0.21 kcal/mol.

Consider TGGCTCACGTGGTTAA, for which the “relative binding free energy” value worked out at 0.2 kcal/mol.

As to GAAATCACGTGTGGTG, the “relative binding free energy” value came to 0.11 kcal/mol.

Consider TTTGACACGTGAGGGG, for which the “relative binding free energy” value was found to be 0.26 kcal/mol.

As to AAGGTCACGTGAGCGT, the “relative binding free energy” value stood at 0.27 kcal/mol.

As to TAGAACACGTGTTGGT, the “relative binding free energy” value is 0.04 kcal/mol.

In the case of ATGTTCACGTGAGTCG, the “relative binding free energy” value was 0.4 kcal/mol.

On to GCGTGCACGTGTTGCG, for which the “relative binding free energy” value is -0.02 kcal/mol.

For TCTGGCACGTGTCGGG, the “relative binding free energy” value is -0.11 kcal/mol.

With GGCTGCACGTGATTAT, the “relative binding free energy” value came out at 0.42 kcal/mol.

GGATACACGTGATTTG: the “relative binding free energy” value came to 0.37 kcal/mol.
